Data set [1] has as its system Common ornamental plant cells infected by viruses. The data set is described as follows: Treatment of virus-infected ornamental plants. The following applies: viral strains not determined.
The target of data set [2] is Zn (HIV1-F1) zinc finger peptide (Human immunodeficiency virus type 1 group M subtype B, UniProt P03348). The following applies: for binding site on the zinc finger peptide by NMR: 1H NMR titration.
Data set [3] concerns normal cells (BALB 3T3, NRK, WI-348). The following applies: Untransformed BALB 3T3, NRK and WI-348; cited from earlier work.
Data set [4] has the same test system. Briefly: Growth control and cell cycle arrest in normal cells. The following applies: short-term treatment.
In data set [5] the test system is pathogenic fungus present in the test tube water. Briefly: Resistance of Portulaca to pathogenic fungus in the test tube water. To be noted: continuously exposed to 6 mM PA, 10 days.

Consider `CCCCc1ccc(C(=O)O)nc1` [fusaric acid, 5-butyl picolinic acid], for which the “effect on viral disease of ornamental plants” value in data set [1] was “positive results (elimination of the disease leaves without any progression of the viral disease)”. Further, the “binding site on the zinc finger peptide by NMR” value in data set [2] was “bind Zn (HIV1-F1) at a hydrophobic cleft”. In addition, the “mode of binding in 1H NMR titration” value in data set [2] (peptide 1.63 mM, Zn^2+ 2 mM, free zinc minimized) is “competitively binds both Zn^2+ and the Zn^2+/Peptide complex”.
Consider `O=C(O)c1ccccn1` [picolinic acid, 2-pyridine carboxylic acid], for which the “suppression of DnaJ-like proteins” value in the data set on DnaJ-like proteins is given as “did not lead to the suppression of DnaJ-like proteins”. For the same compound, the “phase of cell cycle arrest” value in data set [3] was “blocked in G1”. Further, the “effect on viral disease of ornamental plants” value in data set [1] is on record as “positive results (elimination of the disease leaves without any progression of the viral disease)”. Moreover, the “cell cycle arrest of normal cells” value in data set [4] is recorded as “reversibly arrests normal cells at a specific point in the cell cycle (G1)”. Also, the “binding site on the zinc finger peptide by NMR” value in data set [2] is “bind Zn (HIV1-F1) at a hydrophobic cleft”. Moreover, the root development entry in data set [5] is given as “profuse root system”.

Values taken from patent publication US20090241221A1, “TANDEM REAPEAT DNA CONSTRUCTS PRODUCING PROTEINS THAT ATTACK PLANT PATHOGENIC VIRUSES, FUNGI, AND BACTERIA BY DISRUPTING TRANSCRIPTION FACTORS ESSENTIAL FOR REPLICATION THEREOF IN PLANTS” (priority 2008, published 2009).
